According to PubChem BioAssay AID488969 (Vanderbilt High Throughput Screening Facility, 2010):
Whole data set: some 110,000 compounds, median “z-score” near -0.1, cut for the highest 2% near 2. The list shows a part of the results. The source made the active and inactive calls.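 The calls were made as follows: active = z-score in the third read window above 3 or below -3; inactive = the rest.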

What follows are molecules tested against Metabotropic glutamate receptor 8 (Rattus norvegicus) (UniProt P70579) (assay: rat mGluR8 modulators via GIRK flux, primary screen, cell-based, thallium flux, HTS (AID 488969)). Conditions: HEK293 rat mGluR8, GIRK (G protein-gated inwardly rectifying potassium channel) thallium flux, FluoZin2; at 10 µM; stronger effect = higher value.
Chain of UniProt P70579 (P70579 whole entry, looked up): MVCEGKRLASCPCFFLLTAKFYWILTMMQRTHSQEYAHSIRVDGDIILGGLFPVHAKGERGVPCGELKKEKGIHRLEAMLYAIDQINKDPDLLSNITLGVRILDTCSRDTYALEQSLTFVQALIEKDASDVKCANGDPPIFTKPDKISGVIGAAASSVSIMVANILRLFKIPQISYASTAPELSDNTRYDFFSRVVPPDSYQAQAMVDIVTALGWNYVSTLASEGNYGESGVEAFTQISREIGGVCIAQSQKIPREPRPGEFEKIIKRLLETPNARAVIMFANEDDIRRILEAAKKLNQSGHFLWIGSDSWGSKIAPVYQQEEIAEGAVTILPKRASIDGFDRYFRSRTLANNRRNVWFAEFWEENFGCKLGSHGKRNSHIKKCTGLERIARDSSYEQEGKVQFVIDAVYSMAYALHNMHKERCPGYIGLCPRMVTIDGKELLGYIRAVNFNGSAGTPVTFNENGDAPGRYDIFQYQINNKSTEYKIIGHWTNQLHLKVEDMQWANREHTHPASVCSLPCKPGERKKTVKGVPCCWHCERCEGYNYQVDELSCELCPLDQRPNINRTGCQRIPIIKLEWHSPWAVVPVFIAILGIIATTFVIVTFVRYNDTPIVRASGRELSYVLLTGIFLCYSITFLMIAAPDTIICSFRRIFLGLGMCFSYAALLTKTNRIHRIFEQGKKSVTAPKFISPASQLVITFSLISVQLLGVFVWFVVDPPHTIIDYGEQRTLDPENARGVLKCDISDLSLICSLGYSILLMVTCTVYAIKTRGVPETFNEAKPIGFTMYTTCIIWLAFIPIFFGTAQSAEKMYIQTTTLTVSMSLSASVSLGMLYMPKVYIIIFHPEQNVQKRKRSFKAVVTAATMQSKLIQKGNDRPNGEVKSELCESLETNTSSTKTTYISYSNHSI

Compound	z-score
ClCCNc1nc2ccc(Cl)cc2[nH]1	-0.215
CN1CCN(CCC(=O)OC2CC3CCC(C2)N3C)CC1 (configuration not stated)	-0.106
CC(C)C(=O)c1cn(Cc2ccc(C#N)cc2)c2ccccc12	-0.425
CC1(C)CC(n2[nH]c(=O)c3c2NC(=O)CSC3c2ccccc2)CCO1 (configuration not stated)	0.841
CCCCCCn1c(N)c(C(=O)NCCN2CCOCC2)c2nc3ccccc3nc21	-0.204
Cc1cc(N2C(=O)CC(N3CCC(n4c(=O)[nH]c5ccccc54)CC3)C2=O)no1 (configuration not stated)	-0.309
O[C@@H]1CCCC[C@H]1N1CCC(c2ccccc2)CC1	0.16
O=Cc1cn(Cc2ccccc2[N+](=O)[O-])c2ccccc12	0.376
Clc1ccc(C2NCCc3[nH]cnc32)cc1 (configuration not stated)	0.398
O=C(COc1ccccc1)N1CCN(C/C=C/c2ccccc2)CC1	0.702
CCC(=NCC1CCCO1)c1c(O)[nH]c(=O)[nH]c1=O (configuration not stated)	-0.927
Cc1cc(NCCN)nc2ccccc12	-0.142
CC(=O)OC1(Cc2ccccc2)CN2CCC1c1ccccc12 (configuration not stated)	-0.106
CC(=O)Nc1ccc(OC(=O)c2ccccc2N)cc1	0.06
Cc1cc(C)nc(NC2=NCCS2)n1	0.179
O=C(c1ccccc1)c1cn(CC(=O)N2CCOCC2)c2ccccc12	0.111
CC(C)n1c(=O)c(C=Nc2ccc(Cl)cc2)c(O)n(Cc2ccco2)c1=O	-0.0221
C/C(=N\N1CCN(C)CC1)c1c(O)n(Cc2ccccc2)c(=O)[nH]c1=O	-0.292
COc1cccc(CCNCc2ccc(SC)cc2)c1	0.839
Cc1c(N=Nc2c(O)[nH]c(=S)[nH]c2=O)c(=O)n(-c2ccccc2)n1C	-0.268
CC(C)N1C(=O)/C(=C/C=C/c2ccco2)C(=O)N(Cc2ccco2)C1=O	active: 6.08
O=C(c1ccccc1F)c1cn(CC(=O)N2CCCCC2)c2ccccc12	-0.152
OC(c1ccccc1)(c1ccccc1)c1ccncc1	-0.0666
Cc1[nH]c2ccccc2c1C1=CCNCC1	0.222

Compound	z-score
Nc1cc(N2CCNCC2)ccc1[N+](=O)[O-]	-0.0892
CC(=O)c1cccc(NC2=NCC(C)S2)c1 (configuration not stated)	-0.0888
CN1CC(C(=O)c2ccccc2)C(C(=O)c2ccccc2)C1 (configuration not stated)	0.0253
O=c1c2ccccc2nc(CSc2ncnc3nc[nH]c23)n1-c1ccccc1Cl	-0.292
Cc1ccccc1N1C(=O)NC(=O)/C(=C\c2ccc3c(c2)CCCN3Cc2ccccc2)C1=O	-0.379
O=C(c1cc(Br)ccc1Cl)N1CCC2(CC1)OCCO2	0.206
CCCCSC1=NN1c1nc(N)nc(C)c1CC	-0.166
Cc1cc(OCCCC(=O)NCc2cccs2)ccc1Cl	-0.105
O=[N+]([O-])c1ccc(C2C3C(c4ccccc4)=NC4(CCCCC4)N32)cc1 (configuration not stated)	-0.181
COc1cc(/C=C2\C(=O)NC(=O)N(c3ccccc3)C2=O)cc(OC)c1O	-0.0827
COc1ccc(C2SCC(=O)Nc3c2c(C)nn3-c2ccccc2)cc1 (configuration not stated)	-0.461
Cc1cccc(N2C(=O)NC(=O)/C(=C\c3cnc(-c4ccccc4)nc3)C2=O)c1	-0.271
O=C(Nc1ccc(Cl)cc1C(=O)c1ccccc1)c1ccc(Br)o1	-0.138
CSc1nnc([C@@H](N)Cc2ccccc2)o1	0.641
CCCN1CCC2(CC1)NC(CO)(CO)CO2	-0.585
O=C1/C(=C\c2cc3c(cc2Br)OCO3)N2CCC1CC2	-0.259
CCCCn1c(C)c(C(=O)O)c2cc(OC)ccc21	-0.364
Cc1ccc2cccc(OC(=O)N3CCCC3)c2n1	-0.0301
c1ccc2cc(CC3=NCCN3)ccc2c1	0.294
CCOC(=O)N(C)c1ccc(C(O)(C(=O)OCC)C(F)(F)F)cc1 (configuration not stated)	-0.0433
CCOC(=O)CCN=Cc1c(O)n(-c2ccc(Br)cc2)c(=O)[nH]c1=O	0.768
N[C@@H](Cc1c[nH]c2ccccc12)c1nnc(SCc2ccc(Cl)cc2)o1	0.554
O=C(CN1CC=C(c2ccccc2)CC1)Nc1cc(Cl)ccc1Cl	-0.572
CC/C(=N\N1CCCCCC1)c1c(O)n(-c2ccc(C)cc2)c(=O)[nH]c1=O	-0.318

Compound	z-score
CCN(CC)C(=O)c1ccc(NC(=O)c2cccc(F)c2)cc1	-0.198
O=c1[nH]c(=O)n(-c2ccc(Cl)cc2)c(O)c1C=Nc1ccc(S(=O)(=O)Nc2nccs2)cc1	-0.22
Nc1c2c(nc3sc4c(c13)CCCC4)CCCCC2	-0.108
O=C(O)C(O)(c1ccccc1)C1CCCC1 (configuration not stated)	-0.182
Cc1c(N=Cc2c(O)n(CCc3ccccc3)c(=O)[nH]c2=O)c(=O)n(-c2ccccc2)n1C	-0.672
CN1CCc2c(c(N3CCCCC3)nc3n[nH]c(N)c23)C1	0.0981
Cc1cccc(N2C(=O)NC(=O)/C(=C\c3ccc4c(c3)CCCN4Cc3ccccc3)C2=O)c1	-0.759
c1ccc2c(CNC3CCCCCC3)c[nH]c2c1	-0.0434
COC(=O)C1CN(C#N)N(c2ccc(Cl)cc2)C12c1ccccc1-c1ccccc12 (configuration not stated)	0.06
C=CCn1c(O)c(C(C)=NCCN2CCCCC2)c(=O)[nH]c1=O	0.617
CCOC(=O)C1SC2(C(F)(F)C(F)F)CC1(O)c1c(c(OC)c3occc3c1OC)O2 (configuration not stated)	-1.12
Cc1ccc(/C=C2\C(=O)NC(=O)N(CCc3ccc(F)cc3)C2=O)o1	-0.149
COc1ccc(CCNC(=O)c2c(N)n(CCN3CCOCC3)c3nc4ccccc4nc23)cc1OC	-0.257
O=C1N(CN2CCOCC2)c2ccccc2C1(O)c1c[nH]c2ccccc12 (configuration not stated)	0.285
CCN(c1ccc(C(O)(C(=O)OC)C(F)(F)F)cc1)S(=O)(=O)c1ccc(C)cc1 (configuration not stated)	1.21
Fc1ccc(C(OCCN2CCCC2)c2ccc(F)cc2)cc1	-0.27
CC1(C)C2CC=C(CN3CCOCC3)C1C2 (configuration not stated)	0.372
Cc1cc(OC(=O)c2cccs2)c2c3c(c(=O)oc2c1)CCCC3	-0.458
CCOC(=O)C(C)(CC)NC(=O)CSP(=S)(OCC)OCC (configuration not stated)	-0.0861
COc1ccc(C2SCC(=O)Nc3c2c(C)nn3C2CCOC(C)(C)C2)cc1OC (configuration not stated)	-0.264
Cc1nonc1OCCNCCNc1ccc([N+](=O)[O-])c2cccnc12	-0.604
Cc1ccc(S(=O)(=O)NP(=O)(Oc2ccccc2)Oc2ccccc2)cc1	-0.367
CCOC(=O)c1c(C)[nH]c(C(=O)C(Cc2ccccc2)N(C)C)c1C (configuration not stated)	0.837
COc1ccc(CCC(=O)N2CCC3(CC2)OCCO3)cc1	-0.288
